This note sets out measurements from patent US20230414771A1, “PREPARATION AND USE OF IMMUNOSTIMULATORY CONJUGATED COMPLEXES FOR TARGETED DELIVERY AND ACTIVATION” (YAFEI SHANGHAI BIOLOGY MEDICINE SCIENCE & TECHNOLOGY CO., …, priority 2020, published 2023).

Where a SMILES comes first, the peptide text is derived from it. The star is where a group is joined. Doxorubicin(3'-N) = COc1cccc2c1C(=O)c1c(O)c3c(c(O)c1C2=O)C[C@@](O)(C(=O)CO)C[C@@H]3O[C@H]1C[C@H](N*)[C@H](O)[C@H](C)O1; Propanoyl(3-maleimido) = O=C1C=CC(=O)N1CCC(=O)*; PEG2 = NCCOCCOCCC(=O)O Bounds are passed on as bounds.

A short description of the data set: Water solubility test (observation and HPLC). The data set is classed as physicochemical. To be noted: thermodynamic from solid; lyophilized compound dissolved in water; checked by observation and HPLC (>95%). Here is the method:
The compounds prepared in accordance with the examples of the disclosure and the reference compounds C1, C2, C3 and C4 were lyophilized (−70° C.).

`COc1cccc2c1C(=O)c1c(O)c3c(c(O)c1C2=O)C[C@@](O)(C(=O)CO)C[C@@H]3O[C@H]1C[C@H](NC(=O)[C@H](CC(C)C)NC(=O)[C@H](CC(N)=O)NC(=O)[C@H](C)NC(=O)[C@H](C)NC(=O)[C@H](CC(=O)O)NC(=O)CCOCCOCCNC(=O)CCN2C(=O)C=CC2=O)[C@H](O)[C@H](C)O1` [QHL-042-DOX] ({Propanoyl(3-maleimido)-PEG2}-DAANL-{Doxorubicin(3'-N)}) came in with a solubility greater than 20 mg/mL.

By solubility is commonly meant how much of the substance goes into solution per volume. Read a low solubility as little dissolved substance.
